Measurements as given in PubChem BioAssay AID1963576 (National Center for Advancing Translational Sciences (NCATS), 2024).
The whole screen tested about 46,000 compounds, of which about 60 (0.1%) were called active. Inconclusive results (about 3%) are left out. The call rests on the fitted dose curve; in most records, active means well fitted inhibition curve with a large enough effect; inconclusive means small, poorly fitted or top-dose-only effect; inactive means no such curve, though single readings can be large or run the other way. Some of the results follow.

Assay: Primary qHTS assay for Inhibitors of ovarian cancer metastasis using an organotypic tumor microenvironment (TME) model. Further: nearly all actives have a fitted effect of over 65% in size.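 On activity change, negative = inhibition: plate controls were DMSO wells for no effect and tomatine positive control wells for full effect.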
Conditions: SKOV3ip1-GFP adhesion/invasion on 3D omental model, fluorescence; series mostly up to 45.8 µM; activity change, negative = inhibition: at the top concentration
Procedure, shortened: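 Primary human omental fibroblast/mesothelial 3D culture pre-formed 48 h. SKOV3ip1-GFP cells added with compounds (0.36-46 umol/L), incubated 2 h RT/16 h 37 C, fixed; GFP cells quantified at 488/509 nm.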

Activity change, negative = inhibition, inactive:
COc1cc(C(C)=O)ccc1OCCCN1CCC(c2noc3cc(F)ccc23)CC1 11.3%
Clc1cccc(-n2ncc3c(NCCCc4ccccc4)ncnc32)c1 -17.6%
Cc1ccc(CNC(=O)C(CC(C)C)N2Cc3ccccc3C2=O)cc1 (configuration not stated) -1.79%
O=C(NCCSc1c(-c2ccc(Br)cc2)[nH]c2ccccc12)c1ccc(S(=O)(=O)N2CCOCC2)cc1 13.9%
Cc1nnsc1C(=O)Oc1ccccc1Cl 8.64%
O=C1C(c2ccc(C(F)(F)F)cc2)=C(Nc2ccc(Cl)cc2)c2ccccc21 -19.6%
Cc1onc(-c2ccccc2)c1C(=O)N[C@@H]1C(=O)N2[C@@H](C(=O)O)C(C)(C)S[C@@H]12 -17.4%
Cc1ccccc1C(=O)Nc1nnc(S(=O)(=O)N2CCCc3ccccc32)s1 -2.52%
COc1ccc(C(=O)N2CCC(C(=O)Nc3ccc(OC)cc3OC)CC2)cc1 0.0841%
Cc1ccc(-n2c(=O)c3sccc3n(Cc3cc(=O)n4ccccc4n3)c2=O)cc1 5.03%
COc1ccc(C(=O)N=c2sc3cc(Cl)ccc3n2C)cc1 1.18%
CCn1c(C(=O)Nc2cc(C)cc(C)c2)cc2sc(Cl)cc21 -6.66%
Cc1ccc(NC(=O)CSc2nnc(-c3cc4occc4n3C)n2-c2ccccc2C)cc1F -3.22%
CSc1ccccc1NC(=O)CCS(=O)(=O)c1nc(-c2cccs2)cc(C(F)(F)F)n1 -4.28%
Cc1ccc(-c2cn3c4c(=O)n(C)c(=O)n(C)c4nc3n2-c2cccc(Cl)c2)cc1 6.76%
CCCCN(C)c1ncnc2c1cnn2-c1cccc(Cl)c1 3.57%
N#Cc1ccccc1NC(=O)C(=O)NCC(c1cccnc1)N1CCc2ccccc2C1 (configuration not stated) 7.34%
CCc1ccc(S(=O)(=O)c2nnn3c2nc(Nc2cccc(C)c2C)c2sccc23)cc1 1.62%
COc1cc(-c2nnc(SCC(=O)N3CCCc4ccccc43)o2)cc(OC)c1OC -5.46%
COc1ccc(N(CC(=O)Nc2ccc(Cl)cc2C)S(=O)(=O)c2ccccc2)c(OC)c1 12.9%
O=C(NCc1ccccc1Br)c1ccc(-n2cnc3cccnc32)cc1 -2.78%
CCOc1ccccc1NC(=O)C1CCCN(S(=O)(=O)c2ccc3c(c2)CCCN3C(C)=O)C1 (configuration not stated) 2.94%
COc1cccc(CNc2ccc3c(c2)ncn3C)c1OC 5.02%
CCC(=O)N1CCc2cc(S(=O)(=O)NCCC(=O)Nc3cccc(C)c3C)ccc21 1.7%
Cc1cc(C)cc(C(=O)Nc2c3c(nn2-c2ccccc2C)CS(=O)(=O)C3)c1 11.6%
CCOC(=O)c1c(-c2ccccc2)csc1NC(=O)c1cc(-c2cccc(OC)c2)on1 -3.69%
Cc1ccc(Cl)cc1N1CCN(C(=O)Cn2nc(C)n3c(cc4sccc43)c2=O)CC1 -5.7%
CCCN(C(=O)CCn1cnc2onc(-c3ccc(F)cc3)c2c1=O)c1ccccc1C -6.91%
O=C(CN1C(=O)COc2ccc(S(=O)(=O)N3CCCCCC3)cc21)N1CCN(c2ccccc2)CC1 2.77%
Cc1cc(C)cc(NC(=O)Cn2nnc(C(=O)NCc3ccco3)c2N)c1 16.3%
O=C(NNc1ncnc2c1cnn2-c1ccccc1)c1ccccc1 7.93%
CCOc1cc(CNC(=O)C(NS(=O)(=O)c2cccs2)C(C)C)cc(OCC)c1OCC (configuration not stated) 13.8%
COc1ccc(NCc2cccn2-c2nnc(N3CCOCC3)s2)c(OC)c1 -12.3%
COc1ccc(NC(=O)CN2CCN(S(=O)(=O)c3ccc(Br)cc3)CC2)cc1 2.61%
COc1ccc(Cl)cc1NC(=O)C(C)N1Cc2ccccc2C1=O (configuration not stated) -2.85%
COCCNC(=O)Cn1c(=O)n(-c2ccc(C)c(C)c2)c(=O)c2c3c(sc21)CCCCC3 5.23%
CN[C@@H]1C[C@H]2O[C@@](C)([C@H]1OC)n1c3ccccc3c3c4c(c5c6ccccc6n2c5c31)C(=O)N[C@H]4O -19.2%
CCOc1ccccc1CNC(=O)c1cccc(NC(=O)c2nsc3ccccc23)c1 4.88%
CCCc1oc2ccc(NS(=O)(=O)c3ccc(OC)cc3)cc2c1C(=O)OCC -26.9%
COc1ccc(C(=O)Nc2ccc3nc(N4CCCCC4)cc(C)c3c2)c(OC)c1 -4.82%
Cc1cn2c(=O)cc(COc3cccc(NC(=O)c4cccc(F)c4)c3)nc2s1 -0.308%
COc1ccc(C(CC(=O)O)NC(=O)c2cc3ccccc3oc2=O)cc1OC (configuration not stated) 31%
CCN(CC)C(=O)Cn1cc(SCC(=O)Nc2cccc(F)c2)c2ccccc21 4.68%
Cc1ccc(S(=O)(=O)c2cnc(SCC(=O)Nc3cccc(Cl)c3)nc2N)cc1C -20.2%
Oc1ccc(Nc2nc3ccccc3n3cnnc23)cc1 -6.26%
CCc1cccc(C)c1NC(=O)CCCn1c(=O)c2cccn2c2cccnc21 -3.97%
Cc1ccc(-n2ncc(C(=O)NCCCN3CCCCC3)c2C2CCN(C(=O)OC(C)(C)C)CC2)c(C)c1 -16%
Cc1ccc(NC(=O)CSc2nnc3nc(C)cc(C)n23)cc1 -16.8%
CC(C(=O)NCc1ccccc1Cl)n1ccc2cc(S(=O)(=O)N3CCCCC3)ccc21 (configuration not stated) 2.06%
CC(=O)c1ccc(N2CCN(c3ccc(NC(=O)c4cccs4)cc3C(=O)O)CC2)cc1 1.01%
O=C(CSc1nc(-c2cccc(Cl)c2)nc2cc(=O)[nH]n12)Nc1ccccc1 6.59%
CCN(CC)C(=O)c1sc(NC(=O)c2nc3ncccn3n2)c(C(=O)OC)c1C -9.58%
O=c1c2ccccc2n2c(-c3ccccc3O)nnc2n1Cc1ccc(F)cc1 1.51%
Cc1ccc(C)c(NC(=O)CN2C(=O)c3cccc4cccc2c34)c1 -17.3%
Nc1[nH]nc2nnc(-c3c(-c4ccccc4)nn4ccccc34)cc12 15.7%
CCCCCC(=O)N1c2ccccc2C(C)(c2ccccc2)CC1(C)C (configuration not stated) 0.563%
COc1ccc(NC(=O)CN2C(=O)C(c3ccc(C(C)(C)C)cc3)=NC2(C)C)cc1Cl -6.39%
Cc1ccc(C)c(N2CCN(C(=O)Nc3cn(CC(C)C)c(=O)c4ccccc34)CC2)c1 20.9%
COc1ccc(Cn2c(C(=O)O)c(CNCC(C)c3ccccc3)c3ccc(OC)cc32)cc1 (configuration not stated) -9.19%
COc1cccc(CCNC(=O)Cn2c(-c3cccs3)cc3ccccc32)c1 -24.6%
CC(C)NC(=O)CCn1c(SCc2c(F)cccc2Cl)nc2c(sc3ccccc32)c1=O 7.78%
Cc1cc(C)cc(-n2c(SCC(=O)NCc3ccco3)nc3c([nH]c4ccccc43)c2=O)c1 -6.21%
CCOC(=O)N1CCN(Cc2nc3cc(NC(C)=O)ccc3n2C(C)C)CC1 -31.4%
CCCCn1c(SCC(=O)Nc2cccc(OC)c2)nc2c(sc3ccccc32)c1=O -0.582%
COc1ccccc1N1CCN(C(=O)C2CCN(S(=O)(=O)c3c(C)noc3/C=C/c3ccc(C)cc3)CC2)CC1 4.9%
Cc1cc(-n2c(SCC(=O)NCc3ccccc3)nc3ccsc3c2=O)ccc1Cl 2.97%
Cc1nnc2c(N3CCN(c4ccccc4F)CC3)nc3ccccc3n12 -14.5%
COc1ccc(NC(=O)NCCc2c(C)nn(C)c2C)c(OC)c1 -0.971%
COc1cccc(NC(=O)CSc2nnc(COc3ccc(Cl)cc3)o2)c1 29%
O=C(CCC1CCCC1)N1CCc2c([nH]c3ccccc23)C1c1ccc(Cl)cc1 (configuration not stated) -11.8%
CCOc1ccc(OCC(=O)NCCS(=O)(=O)N2CCN(c3ccc(F)cc3)CC2)cc1 1.92%
Cc1ccc(-n2nc3ccc(NC(=O)c4oc5ccc(C)cc5c4C)cc3n2)cc1 0.927%
Cc1ccc(-n2nnc(-c3nsc(NC(=O)c4ccccc4)n3)c2C)cc1 -20.4%
Cc1cc(C(F)F)n2nc(C(=O)Nc3cc(Cl)ccc3C)nc2n1 -7.42%
CC1CCc2noc(NC(=O)c3ccccc3[N+](=O)[O-])c2C1 (configuration not stated) -4.33%

outcome, inactive:
Cc1cccc(-c2cc(NC(=O)COc3ccccc3F)n(-c3ccccc3)n2)c1
CCN(C(=O)Cn1nc(Cc2cccnc2)c2ccccc2c1=O)c1cc(C)ccc1C
CCN(CC)CCOC(=O)c1ccc(NC(=O)CCn2c(=O)oc3ccccc32)cc1
COc1ccc(OC)c(CCNC(=O)C(C)n2nc(C)c3c(C)n(-c4ccc(C)cc4)nc3c2=O)c1 (configuration not stated)
Cc1cc(SCC(=O)NCc2ccccc2)nc(=O)[nH]1
CCC(=O)N1c2nc(C(C)C)nn2C2(CCCCC2)[C@@H]2CCCC[C@@H]21
Cc1ccc(C(=O)Nc2nnc(SCc3cc(=O)n4ccc(C)cc4n3)s2)cc1
O=C(Cn1nc2c(cc1=O)CCCC2)NCc1ccccc1Cl
O=C(Cn1c(SCc2cccc(F)c2)nc2ccncc21)Nc1ccc(Cl)cc1F
Cc1ccc(C(CC(=O)Nc2ccc(C)cc2C)N2Cc3ccccc3C2=O)cc1 (configuration not stated)
CCOC(=O)c1c(NC(C)=O)c2c3c(sc2n1Cc1cccc(Cl)c1)CCCC3
O=C(Nc1cccc2cccnc12)c1ccccc1[N+](=O)[O-]
CCOCCCNC(=O)CN1C(=O)COc2ccc(S(=O)(=O)N3CCCCCC3)cc21
CCOC(=O)c1cnc2c(C)cc(C)cc2c1Nc1cccc(C(=O)O)c1
Cc1cccc(Cn2c(=O)n(Cc3ccc(C(=O)NC4CCN(Cc5ccccc5)CC4)cc3)c(=O)c3ccccc32)c1
Cc1cccc(Cn2ccn(Cc3ccc(Cl)cc3)c(=O)c2=O)c1
CCOC(=O)c1ccccc1NC(=O)NC(C)c1c(-n2cccc2)sc(C)c1C (configuration not stated)
CCC(Sc1nc2c(sc3ccccc32)c(=O)n1CCc1ccccc1)C(=O)N(CC)CC (configuration not stated)
O=C(c1ccc2c(c1)N(Cc1ccccc1)C(=O)c1ccccc1S2(=O)=O)N1CCCC1
O=C(c1ccccc1Br)N(Cc1ccco1)C1CCS(=O)(=O)C1 (configuration not stated)
Cc1cccc(Cc2cnc(NC(=O)C3Cc4ccc(C)cc4C(=O)O3)s2)c1 (configuration not stated)
CCc1cccc(C)c1NS(=O)(=O)c1cc(-c2cc(C)no2)ccc1C
